Measured values taken from PubChem BioAssay (NCATS).
The shares of active, inactive and inconclusive entries below differ from those in the screen. Where the call is inconclusive, the potency comes from a doubtful curve fit. Active and inactive are the calls of the source. Calls follow the shape of the dose curve; as a rule, active = well fitted curve in the direction sought with a large enough effect; inconclusive = small, poorly fitted or top-dose-only effect, or another doubt; inactive = no such curve, though single readings can be large; an effect the other way counts as inactive or inconclusive.

Tests used:
[1] = Viability qHTS for spleen associated tyrosine kinase inhibitor (SYKi) naive MV4-11 cells (AID 1963823); details: MV4-11 AML viability, CellTiter-Glo luminescence, 72 h; series mostly up to 45 µM; also: nearly all actives have a fitted effect of over 40% in size
In short: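 Read-out: CellTiter-Glo luminescence. Exposure: 72 hr, 37 C, 5% CO2, 95% humidity. Cells: MV4-11 without SYK inhibitor history, 500/well, qHTS format.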

[2] = Viability qHTS for spleen associated tyrosine kinase inhibitor (SYKi) drug resistant MV4-11 cells (AID 1963824); details: SYKi-resistant MV4-11 viability, CellTiter-Glo, 72 h; series mostly up to 45 µM; also: nearly all actives have a fitted effect of over 35% in size
In short: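 SYK-inhibitor-resistant MV4-11 AML cells were seeded at 500 per well onto compound and cultured 72 hours (37 °C, 5% CO2). CellTiter-Glo was then added, and after 10 min at room temperature, luminescence gave viability.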

[3] = Cellular viability qHTS for adrenocortical cancer (ACC) cell line NCI-H295R (AID 1963990); details: CellTiter-Glo ATP luminescence, 48 h; series mostly up to 46.1 µM; also: nearly all actives have a fitted effect of over 60% in size
In short: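 Adrenocortical carcinoma cells, suspended at 300 000 cells/mL in serum-free DMEM plus ITS, rested overnight before pin transfer of compound. After two days' incubation, ATP-dependent luminescence was recorded and curve-fitted.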
Potency is read from the fitted curve at half-maximal effect; tags tell the direction and shape of the fitted curve.

| SMILES | Potency [1] | Potency [2] | Potency [3] |
| --- | --- | --- | --- |
| CCC(=O)C(CCN(C)C)(c1ccccc1)c1ccccc1 | inconclusive: 29.9 µM [cytotoxic, single point] | inconclusive: 16.8 µM [cytotoxic, partial curve, poor fit] | inactive |
| O=c1c(C2CC(c3ccc(-c4ccc(Br)cc4)cc3)Cc3ccccc32)c(O)sc2ccccc12 (centres undefined) | inconclusive: 16.8 µM [cytotoxic, partial curve] | inconclusive: 26.6 µM [cytotoxic, single point] | active: 7.31 µM |
| CN1CCc2cc(Cl)c(O)cc2[C@H]2c3ccccc3CC[C@@H]21 | inconclusive: 13.3 µM [cytotoxic, partial curve, poor fit] | inconclusive: 26.6 µM [cytotoxic, single point] | inconclusive: 36.6 µM [cytotoxic, single point] |
| CC1=C(C(=O)O)N2C(=O)[C@@H](N)[C@H]2SC1 | inconclusive: 5.17 µM [cytotoxic, partial curve, poor fit] | inconclusive: 2.91 µM [cytotoxic, full curve, poor fit] | inconclusive: 15.9 µM [cytotoxic, single point] |
| O=C(CCl)c1ccc(Cl)cc1Cl | inactive | inactive | inconclusive: 32.6 µM [cytotoxic, single point] |
| CCOP(=O)(NC(C)C)Oc1ccc(SC)c(C)c1 (centres undefined) | inconclusive: 21.7 µM [cytotoxic, partial curve] | inconclusive: 21.7 µM [cytotoxic, partial curve] | inconclusive: 56.2 µM [cytotoxic, single point] |
| CN1C2CCC(C)(C)C1CC(OC(=O)C(O)(c1cccs1)c1cccs1)C2 (centres undefined) | inactive | inconclusive: 0.531 µM [cytotoxic, full curve, poor fit] | inactive |
| COc1ccc2c3c1O[C@H]1[C@H](O)CC[C@H]4[C@@H](C2)N(C)CC[C@@]341 | inconclusive: 10.7 µM [cytotoxic, partial curve, poor fit] | inconclusive: 0.337 µM [cytotoxic, full curve, poor fit] | inactive |
| Cc1sc2c(c1C)C(c1ccc(Cl)cc1)=NC(CC(N)=O)c1nnc(C)n1-2 (centres undefined) | inconclusive: 0.0742 µM [cytotoxic, full curve] | inconclusive: 0.0742 µM [cytotoxic, full curve] | inconclusive: 1.41 µM [cytotoxic, partial curve] |
| CC(C)(C)NCC(O)c1ccccc1Cl (centres undefined) | inactive | inactive | inconclusive: 5.17 µM [rising, single point] |
| CC[C@H]1C[C@H]2[C@@H]3CCC4=CC(=O)CC[C@@H]4[C@H]3CC[C@]2(C)[C@H]1O | active: 18.8 µM | inconclusive: 20.6 µM [cytotoxic, partial curve] | inconclusive: 23.1 µM [cytotoxic, single point] |
| CCOC(=O)NC(C)(C)Cc1ccc(Cl)cc1 | inactive | inactive | inconclusive: 6.51 µM [cytotoxic, single point] |
| C[C@]12CC[C@H]3[C@@H](CCC4=CC(=O)CC[C@@H]43)[C@@H]1CC[C@@H]2OC(=O)CCc1ccccc1 | inconclusive: 23.7 µM [cytotoxic, partial curve] | inconclusive: 33.5 µM [cytotoxic, single point] | inconclusive: 3.26 µM [cytotoxic, partial curve, poor fit] |
| [N-]=[N+]=CC(=O)OC[C@H](N)C(=O)O | inactive | inactive | inactive |
| CCCSP(=O)(OCC)SCCC | active: 0.016 µM | inconclusive: 0.002 µM [rising, full curve] | inconclusive: 39.8 µM [cytotoxic, single point] |
| c1cc2ccc3cccc4ccc(c1)c2c34 | inconclusive: 0.002 µM [rising, full curve, poor fit] | inconclusive: 0.0018 µM [rising, full curve, poor fit] | inactive |
| NCCc1ccc(O)cc1 | inactive | inconclusive: 33.5 µM [cytotoxic, single point] | inactive |
| O=C1CN2CCOC2(c2ccccc2Cl)c2cc(Cl)ccc2N1 (centres undefined) | inconclusive: 16.8 µM [cytotoxic, partial curve] | inconclusive: 10.6 µM [cytotoxic, partial curve] | inconclusive: 25.9 µM [cytotoxic, single point] |
